Test results reported in ChEMBL document CHEMBL4888484, “Replenishing the malaria drug discovery pipeline: Screening and hit evaluation of the MMV Hit Generation Library 1 (HGL1) against asexual blood stage Plasmodium falciparum ,using a nano luciferase reporter read-out” (2022).
Out of some 150,000 compounds screened, about 540 (0.36%) showed an effect of 50% or more. The list shows a part of the results.

test system: Plasmodium falciparum; assay: Primary screen in NF54 nanoGlo assay, in single point, at 2uM, 72h; a lower Z score goes with more inhibition; format: functional, Erythrocyte; conditions: timepoint 72 hour

| SMILES | % Inhibition | Z score |
| --- | --- | --- |
| CC(C)[C@H](C)NC(=O)CN(C)c1cnccn1 | -1% | 0.15 |
| O=C(Cc1cccs1)NC[C@H]1CN(c2ccccc2)C(=O)O1 | -12% | 1.33 |
| COc1ccccc1NC(=O)Nc1ccc(N2CCCC2=O)c(C)c1 | -11% | 1.62 |
| COc1c(Cl)cccc1NCC(=O)Nc1cc(C)nn1C | -7% | 0.71 |
| CCC(CC)n1nccc1C(=O)N1CCC2(CCN(C)CC2)C1 | -1% | 0.13 |
| C=CCC[C@@H](CN(C)CC(=O)N(C)C)Oc1ccnc(OC)c1C#N | -7% | 1.19 |
| Cc1cc(C2CCC(C(=O)NCc3ccccn3)CN2C(=O)NCc2ccccc2)ccc1F (stereo not given) | -2% | 0.31 |
| Cc1cc(=O)c2cccc(C(=O)NCCN3CCC[C@H](C(N)=O)C3)c2[nH]1 | 1% | -0.1 |
| Cc1nc2ccccc2nc1N1CCC2(CC1)OCCO2 | -11% | 1.78 |
| Cc1nc(N)nc(N2CCC(Oc3ccc(F)cc3)CC2)c1CCC(=O)O | -13% | 1.26 |
| CCOc1ccc2c(n1)CCN(C(=O)c1ccc(OC)cc1)C2 | 36% | -5.21 |
| Cc1noc(C)c1Cn1nnnc1C=Cc1ccccc1 | 0% | -0.05 |
| CCCc1cnc(NC2CCN(C(=O)CC)CC2)nc1 | -7% | 1.31 |
| Cc1ccc(Cl)cc1NC(=O)c1ccnc(-c2ccsc2)c1 | -2% | 0.32 |
| N[C@H](C(=O)N1CCC2(CC1)Cc1cn(nn1)CCCNC(=O)[C@H](Cc1ccccc1)NC2=O)C1CCCCC1 | 3% | -0.5 |
| N#Cc1ccc(OCC(O)CN2CCCC2c2cccs2)cc1 (stereo not given) | -7% | 1.02 |
| Cc1ccc(Cc2nsc(NCCc3ccc(Cl)cc3Cl)n2)cc1 | -13% | 1.44 |
| CCCn1nccc1-c1cnn(CC(=O)NC)c1 | -14% | 1.27 |
| C[C@H](O)CNC(=O)C1CCCC(F)(F)C1 (stereo not given in full) | -5% | 1.06 |
| C[C@H](Nc1nnc(-c2ccon2)s1)C1(S(C)(=O)=O)CC1 | -11% | 1.4 |
| CC(C)Cn1cc(C(F)F)c(C(=O)N2CCCN(C(C)C)CC2)n1 | 0% | -0.02 |
| Cc1ccnc(-n2nccc2NC(=O)NCCc2c[nH]c3ccccc23)c1 | -9% | 1.02 |
| O=C1C[C@H](NS(=O)(=O)Cc2ccccc2)CN1C1CC1 | -10% | 1.48 |
| CC(C)c1nn(C)cc1-c1ccc(C(F)(F)F)nc1O | 2% | -0.19 |
| N#Cc1ccc(CN2CCC[C@H]2c2ccncc2)c(F)c1 | -3% | 0.55 |
| O=C1CNC(=O)N1Cc1nc(C2CCC(F)(F)CC2)cs1 | -15% | 2.79 |
| O=C(N1CCOCC1)[C@]1(F)CCCN(Cc2cccnc2)C1 | -15% | 1.29 |
| CC(C)c1ccc(C(=O)NC2CCN(c3nnnn3C)CC2)c(O)c1 | 0% | 0.02 |

| SMILES | % Inhibition | Z score |
| --- | --- | --- |
| COc1ccc(C(Nc2nc(C)c3c(n2)CCCC3)[C@H]2C[C@H](O)C2)cn1 (stereo not given in full) | 5% | -0.91 |
| CC(=O)N(c1nc(C=Cc2ccncn2)cs1)C1CC1 | 0% | -0.02 |
| COCc1nc(C(C)C)nc(N2CCN(C(=O)c3cccs3)CC2)c1Cc1cc(C)ccc1C | -1% | 0.2 |
| CCc1cc(C(=O)N2CC(C)OCC2C)[nH]n1 (stereo not given) | 34% | -3.88 |
| CCS(=O)(=O)NCCNc1ccc(C)nn1 | 15% | -2.03 |
| CC(C)(C1=CCCCC1)c1noc(C2(S(C)(=O)=O)CCCC2)n1 | -1% | 0.17 |
| CCOC(=O)CC1(S(=O)(=O)Nc2cccc3ccccc23)CC1 | 35% | -5.06 |
| COCC(C)(C)c1noc([C@@H]2Cc3ccccc3O[C@H]2C(F)F)n1 | -7% | 1.25 |
| O=C(NCCCc1ccccc1)N1CCC[C@@H]1CS(=O)(=O)c1ccccc1 | -4% | 0.69 |
| CC(C)OCc1cccc(NC(=O)N2CC[S@+]([O-])C(C)(C)C2)c1 | -14% | 1.72 |
| Cc1cc(C(=O)NCCOCC(N)=O)cc(Cl)c1Br | -22% | 1.97 |
| CCc1ccc(NC(=O)c2ccc(N3CC(C)CC(C)C3)c(NS(=O)(=O)c3c(C)cc(C)cc3C)c2)cc1 (stereo not given) | -4% | 0.45 |
| CC(C)CN1CCCCC1CNC(C)c1cnccn1 (stereo not given) | 0% | -0.03 |
| CCC(C(N)=O)N1CCOC(CO)C1 (stereo not given) | -4% | 0.56 |
| CCS(=O)(=O)N1CC(=O)N(c2cccc(Cl)c2C)[C@](C)(C(=O)NC2CCCCCCC2)C1 | -2% | 0.21 |
| CCCN(CC(=O)O)C(=O)c1cc(C)cc(C)c1 | -7% | 1.22 |
| O=C(Cc1ccccc1)NCCN1CCCC1 | -3% | 0.45 |
| Cc1c(NC(=O)Cc2ccc(Br)cc2)c(=O)n(-c2ccccc2)n1C | -13% | 1.12 |
| Cc1ccc(N2C[C@H]3CC[C@@H](C2)N(Cc2c(C)noc2C)C3=O)nn1 | -4% | 0.46 |
| CCN(C(=O)[C@H](C)Nc1cn(C)nc1C)C1CCCCC1 | -11% | 1.59 |
| CCC(CC)(CC)NC(=O)[C@H]1CCOC1 | 2% | -0.34 |
| O=C1CCCCCN1CCC(=O)N1CCc2c(Cl)cccc2C1 | -19% | 1.88 |
| O=S1(=O)CC[C@H](Nc2ncnc3c2cnn3-c2ccc(Cl)c(Cl)c2)C1 | -15% | 2.51 |
| CCCc1nc(C(=O)N2CCC3(CC2)Cc2cccc(c2)Oc2ccc(cc2)C[C@@H](C(=O)O)NC(=O)CCNC3=O)cs1 | -11% | 1.43 |
| Cn1ccc(C(=O)N[C@@H]2COCC[C@@H]2Oc2cccc(F)c2)cc1=O | 1% | -0.24 |
| O=C1NCCC[C@@]12CCN(Cc1nc3c(s1)CCCC3)C2 | -10% | 1.73 |
| CC(C)(C)CC(C)(C)NC(=O)Nc1cccc(C(F)(F)F)c1 | -16% | 1.71 |
